Sequences with one replicate were seen in a single cluster, so their values are uncertain.
Tested on: ATP
Experiment: switch fluorescence ratio, 500 uM ATP over buffer (Cy3 cluster intensity, sum of 5 cycles each) (fold (ratio)); higher = stronger signal-on switching upon ATP binding; sequences stand for … in TCGTCGGCAGCGTCAGATGTGTATAAGAGACAGTTTTTTTTTTTTTTTTTTTTTTTTT…TC
Conditions: aptamer strand: ATP DNA aptamer (quencher-CACCTGGGGGAGTATTGCGGAGGAAGG + anchor), 100 nM annealed; ATP concentration: 500 uM; one replicate
Outline: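 For every switch-domain sequence, the fluorescence ratio is the mean of per-cluster values, each being summed target-cycle Cy3 intensity over summed buffer-cycle Cy3 intensity. Clusters outside 100-1000 RFU were excluded. On a modified Illumina MiSeq flow-cell, the Cy3-labelled switching-strand clusters were annealed to 100 nM quencher-labelled ATP aptamer, imaged in selection buffer and then after 15 min with 500 uM ATP at 22 °C. Five such cycles were run, with NaOH stripping and re-annealing between them.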
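Further: ATP exposure 15 min at 22 °C before imaging.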

ACGTGTCATG
switch fluorescence ratio: 1.01

GGTGCTAGGT
switch fluorescence ratio: 0.976

CCTTTCACTA
switch fluorescence ratio: 1.08

AGTGGAGATG
switch fluorescence ratio: 0.973

GGATTGCA
switch fluorescence ratio: 1.01

TAATCAGAGT
switch fluorescence ratio: 0.997

TTTTCCGGTG
switch fluorescence ratio: 1.14

ATGATGCAAA
switch fluorescence ratio: 1.02

ACATACGTGC
switch fluorescence ratio: 1.32

ATAATTTATG
switch fluorescence ratio: 1.01

GACCATGGTA
switch fluorescence ratio: 0.979

TGAGTACTT
switch fluorescence ratio: 1.03

AACCTGAATT
switch fluorescence ratio: 1.08

AATTAAAAG
switch fluorescence ratio: 1.04

TAAATCCTTA
switch fluorescence ratio: 1.06

AACCTGGAT
switch fluorescence ratio: 1.31

GTGTACTCA
switch fluorescence ratio: 1.01

TGCGGGAGGT
switch fluorescence ratio: 1.03

TCTTGGACGT
switch fluorescence ratio: 0.993

GAAAGTTGTG
switch fluorescence ratio: 1.03

GGGATTCTTT
switch fluorescence ratio: 1.04

ACGAATGTTA
switch fluorescence ratio: 0.992

CATGGTACC
switch fluorescence ratio: 0.979

TAATTCGAGG
switch fluorescence ratio: 0.977

GCTCATGTTG
switch fluorescence ratio: 0.984

TAGTTTATAT
switch fluorescence ratio: 1.07

CCGACTCAAC
switch fluorescence ratio: 3.23

ATGCCAAAGC
switch fluorescence ratio: 0.99

GTCATAGAAA
switch fluorescence ratio: 0.985

TCTCTTAGAT
switch fluorescence ratio: 0.981

TTGGCGAAAT
switch fluorescence ratio: 1.07

GTTGAAGCTC
switch fluorescence ratio: 1.01

GTGGCCTACT
switch fluorescence ratio: 0.972

ACATTCTT
switch fluorescence ratio: 1.01

ACGGCAAATA
switch fluorescence ratio: 1.2

GCGGGAAGTA
switch fluorescence ratio: 1.03

ACGAGGAAGG
switch fluorescence ratio: 0.99

ACATTAAAGG
switch fluorescence ratio: 0.999

AACGAACTCG
switch fluorescence ratio: 1.14

CCTTTGCTTG
switch fluorescence ratio: 1.05

AGGACTTTGC
switch fluorescence ratio: 1

AGGTCGGGAC
switch fluorescence ratio: 1.03

TATGTAGGG
switch fluorescence ratio: 1.02

CCTGAAAATA
switch fluorescence ratio: 1.01

AGGGACATA
switch fluorescence ratio: 1.03

GAGGTGTTGT
switch fluorescence ratio: 1

AAGCTTTATC
switch fluorescence ratio: 1.02

AAAGATCGCA
switch fluorescence ratio: 1.05

CGTTTGGCTC
switch fluorescence ratio: 1.07

TCACCGTGTG
switch fluorescence ratio: 1.59

TGGTTGGTAG
switch fluorescence ratio: 1.03

TACGATACGC
switch fluorescence ratio: 1.45

CATTACGTCT
switch fluorescence ratio: 0.993

GATCCCCAAC
switch fluorescence ratio: 1.04

CGTAATTAGT
switch fluorescence ratio: 1.07

ATATTTGCAT
switch fluorescence ratio: 0.973

TGAAACTCCA
switch fluorescence ratio: 1.04

TTAAGGCGTG
switch fluorescence ratio: 1

CGTTTGGTGC
switch fluorescence ratio: 0.999

AGTTTCGTGC
switch fluorescence ratio: 1.02

AAGTTACCCA
switch fluorescence ratio: 1.13

TCAATGCAAT
switch fluorescence ratio: 1.56

ACTTGAGACT
switch fluorescence ratio: 1.03

TTCATATAAT
switch fluorescence ratio: 1.01

GCAATCCGCA
switch fluorescence ratio: 1.58

TCACTATGG
switch fluorescence ratio: 1.08

TGTGGATGTG
switch fluorescence ratio: 0.992

ATTGCTTGGA
switch fluorescence ratio: 0.956

GCTGCGGTCT
switch fluorescence ratio: 1.07

ATACAAGGCC
switch fluorescence ratio: 0.976

TATTATAGGC
switch fluorescence ratio: 1

TCCAATAGTG
switch fluorescence ratio: 1.01

CCACCCACCC
switch fluorescence ratio: 1.38

AAGTTGACAG
switch fluorescence ratio: 0.986

TCAGCAAAGA
switch fluorescence ratio: 4.32

GTTAGAACGA
switch fluorescence ratio: 0.985

AATATCCT
switch fluorescence ratio: 1.01

ACTTGAGCCG
switch fluorescence ratio: 0.965

TCGGAATAAC
switch fluorescence ratio: 2.35

TTGAGGTCGC
switch fluorescence ratio: 0.944

AGGCATTGAA
switch fluorescence ratio: 0.996

TATTATGTAC
switch fluorescence ratio: 1.06

TTAAGGTATC
switch fluorescence ratio: 1.01

CAGACTTTTG
switch fluorescence ratio: 0.919

CGCTCCCATC
switch fluorescence ratio: 1.74

GATCTAGCGA
switch fluorescence ratio: 0.981

CGCACTGTAT
switch fluorescence ratio: 1.16

GAATACATGT
switch fluorescence ratio: 1.01

CAAGAGGCTG
switch fluorescence ratio: 1.03

ATGGTCCCAC
switch fluorescence ratio: 0.948

TGAGCATCTG
switch fluorescence ratio: 0.979

CTAACTCAAA
switch fluorescence ratio: 1.02

TCCACTTCCG
switch fluorescence ratio: 1.09

TGGGCTAAT
switch fluorescence ratio: 1.04

ATGCGACGGT
switch fluorescence ratio: 1.09

TTGGATTGCC
switch fluorescence ratio: 1.08

GTCTTCACCG
switch fluorescence ratio: 1.03

AATATGAAGT
switch fluorescence ratio: 0.963

TATTCAACCC
switch fluorescence ratio: 1.03

GTGACGTAGG
switch fluorescence ratio: 1.01

CATTTGCATC
switch fluorescence ratio: 1.23

ATTATCCGAG
switch fluorescence ratio: 1.07

GCGTCAGGCC
switch fluorescence ratio: 1.01

AGCAAGTTGA
switch fluorescence ratio: 1

CTTCTAGGGT
switch fluorescence ratio: 0.992

TACCGTGCAG
switch fluorescence ratio: 1.16

TTTTCAGATA
switch fluorescence ratio: 1.02

TGATAGTCGT
switch fluorescence ratio: 0.975

GGAGCACGCC
switch fluorescence ratio: 1.12

CGCATGACTC
switch fluorescence ratio: 5.33

GGAAACACTC
switch fluorescence ratio: 1.03

CCAGACAAGC
switch fluorescence ratio: 1.01

CCCAGTAGG
switch fluorescence ratio: 1.06

CATTGTGGTT
switch fluorescence ratio: 1.01

GCTTGACAGC
switch fluorescence ratio: 1

TTTTTTCGTA
switch fluorescence ratio: 0.996

TATAAGCCTT
switch fluorescence ratio: 0.989

CTATTACACG
switch fluorescence ratio: 1.03

GGCCAAATTT
switch fluorescence ratio: 1.01

GGTAGTAATC
switch fluorescence ratio: 1.15

GACATCCTAT
switch fluorescence ratio: 1.03

GGGGCAA
switch fluorescence ratio: 1.22

CTTAGGGGAA
switch fluorescence ratio: 1

CTCGAAGTTT
switch fluorescence ratio: 0.996

CTGTTTTAGG
switch fluorescence ratio: 1.01

ATCCTAAGTT
switch fluorescence ratio: 1.01

CTCGTAGTTA
switch fluorescence ratio: 1.04

TCTGACTCTA
switch fluorescence ratio: 1.22

CGGTTGTACT
switch fluorescence ratio: 1.08

AATTTCTTCC
switch fluorescence ratio: 2.05

CCTGATACCG
switch fluorescence ratio: 1.23

AGAGAGGTCT
switch fluorescence ratio: 0.995

AAGATTTATC
switch fluorescence ratio: 1.01

GACCATCGTG
switch fluorescence ratio: 1.1

CGGAATTGTG
switch fluorescence ratio: 0.959

TGGGCGAGTT
switch fluorescence ratio: 0.98

AGGGGGTGGA
switch fluorescence ratio: 1.01

AAAGCGGTGA
switch fluorescence ratio: 1.02

TGCGCGTTCC
switch fluorescence ratio: 1.14

GGCATCCACG
switch fluorescence ratio: 1.05

TGCCCCAGGC
switch fluorescence ratio: 1.04

CCTGTGTTTG
switch fluorescence ratio: 1.06

TAAAGCCCTG
switch fluorescence ratio: 0.96

ACATTCTGGG
switch fluorescence ratio: 1.01

CGTTTCCCCG
switch fluorescence ratio: 1.03

GGCTCGTCTG
switch fluorescence ratio: 1.07

CCGACGGGAG
switch fluorescence ratio: 1.25

GCTGTCCTGT
switch fluorescence ratio: 0.957

TGAATGGTGC
switch fluorescence ratio: 1.08

ATTTACCGCA
switch fluorescence ratio: 1.29

ACGGTCGTTT
switch fluorescence ratio: 0.985

GAAATTAGTA
switch fluorescence ratio: 0.964

ACTCGAGTCG
switch fluorescence ratio: 0.947

ATTCTTACGA
switch fluorescence ratio: 1.02

GGCATTAGTG
switch fluorescence ratio: 1.02

ATGGCGGAGT
switch fluorescence ratio: 1.02

TGTCGTAGAA
switch fluorescence ratio: 0.946

— the supplement of paper PMC10126150
